Measurements reported in patent US20120052122A1, “Treatment Of Chronic Obstructive Pulmonary Disease With Phosphodiesterase-4 Inhibitor” (Nycomed GmbH, priority 2010, published 2012).

System: patients with moderate-to-severe COPD
Assay: Tiotropium plus roflumilast (M2-128) trial, 24 weeks
Assay type: in vivo
Conditions: Tiotropium + roflumilast vs Tiotropium + placebo

## O=C(Nc1c(Cl)cncc1Cl)c1ccc(OC(F)F)c(OCC2CC2)c1 [Roflumilast, N-(3,5-dichloropyridin-4-yl)-3-cyclopropylmethoxy-4-difluoromethoxy-benzamide]
  Change in postbronchodillator FEV1, difference: 81 mL
  Change in prebronchodillator FEV1, difference: 80 mL
  TDI focal score, difference: 0.4
